Values joined by “and” are separate entries in the source; they are usually repeats but may differ in a detail not shown here. Equal entries are not always repeated. In all, about 350,000 compounds went through this assay and about 31,000 (8.9%) were called active. Inconclusive results, whose numbers are uncertain, are shown with a selection of clear calls. Calls follow the shape of the dose curve; as a rule, active = well fitted inhibition curve with a large enough effect; inconclusive = small, poorly fitted or top-dose-only effect; inactive = no such curve, though single readings can be large or run the other way. Where the call is inconclusive, the potency comes from a doubtful curve fit.
Molecular target: Histone-lysine N-methyltransferase EHMT2 (Homo sapiens) (UniProt Q96KQ7)
Test: qHTS Assay for Inhibitors of Histone Lysine Methyltransferase G9a; also: nearly all actives have a fitted effect of over 75% in size
Conditions: G9a H3K9 monomethylation, AlphaScreen, 2 h; activity, negative = inhibition: at 59 µM (top of the series) unless noted
How it was run: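 AlphaScreen detection with an anti-monomethyl H3K9 antibody quantified product after a 2 h room-temperature reaction containing 500 nM biotinylated H3K9 peptide, 20 µM SAM and 20 nM enzyme, which had been preincubated 15 min with compound.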
% is scaled to controls: 0 for no effect and ±100 for the full control effect; potency is read from the fitted curve at half-maximal effect; tags tell the direction and shape of the fitted curve.

Sequence of UniProt Q96KQ7 (Q96KQ7 whole entry, looked up): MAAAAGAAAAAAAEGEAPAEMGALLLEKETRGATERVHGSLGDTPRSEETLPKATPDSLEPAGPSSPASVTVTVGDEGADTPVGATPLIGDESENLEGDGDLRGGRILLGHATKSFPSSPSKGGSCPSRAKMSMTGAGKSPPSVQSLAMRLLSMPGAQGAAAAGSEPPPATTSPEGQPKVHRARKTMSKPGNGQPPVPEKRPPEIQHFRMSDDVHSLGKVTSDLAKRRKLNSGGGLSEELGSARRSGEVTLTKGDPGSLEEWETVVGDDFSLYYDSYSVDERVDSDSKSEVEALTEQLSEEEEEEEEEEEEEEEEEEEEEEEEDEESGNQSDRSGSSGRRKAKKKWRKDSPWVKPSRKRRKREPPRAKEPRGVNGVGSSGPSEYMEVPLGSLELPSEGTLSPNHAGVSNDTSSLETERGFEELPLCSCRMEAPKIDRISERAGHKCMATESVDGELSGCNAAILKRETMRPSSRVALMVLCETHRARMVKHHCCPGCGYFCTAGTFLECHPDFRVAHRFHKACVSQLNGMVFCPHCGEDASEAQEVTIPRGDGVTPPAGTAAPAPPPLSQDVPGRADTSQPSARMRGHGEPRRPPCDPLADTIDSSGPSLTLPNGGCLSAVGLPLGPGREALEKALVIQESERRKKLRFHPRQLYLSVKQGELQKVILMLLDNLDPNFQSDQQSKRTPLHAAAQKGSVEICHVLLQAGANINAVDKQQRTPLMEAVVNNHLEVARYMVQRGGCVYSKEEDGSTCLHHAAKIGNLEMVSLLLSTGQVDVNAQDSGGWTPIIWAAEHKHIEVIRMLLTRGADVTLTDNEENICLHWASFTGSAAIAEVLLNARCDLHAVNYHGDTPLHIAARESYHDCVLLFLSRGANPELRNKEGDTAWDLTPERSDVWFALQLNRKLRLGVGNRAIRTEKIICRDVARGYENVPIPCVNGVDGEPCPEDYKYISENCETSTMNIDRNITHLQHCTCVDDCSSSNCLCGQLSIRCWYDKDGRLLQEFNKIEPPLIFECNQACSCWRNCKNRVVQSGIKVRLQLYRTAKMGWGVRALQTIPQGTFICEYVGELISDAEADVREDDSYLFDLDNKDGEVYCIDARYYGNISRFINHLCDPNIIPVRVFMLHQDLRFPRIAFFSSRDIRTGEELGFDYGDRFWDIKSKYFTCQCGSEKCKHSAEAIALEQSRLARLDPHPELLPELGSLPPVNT

Question: With Oc1ccc(Cl)cc1C1=NNC(c2ccc(Cl)cc2)C1 (stereo not drawn) as the compound, how does the Potency read?
Answer: Its Potency is inconclusive: 28.2 µM [inhibitor, single point].

Question: Which Potency does the source give for Cc1ccc(-c2nc(SCC(=O)N(C)C3CCS(=O)(=O)C3)[nH]c2-c2ccc(C)cc2)cc1 (stereo not drawn) here?
Answer: Its Potency is inconclusive: 3.55 µM [inhibitor, single point].

Question: With COc1cccc(-c2nc(SCC(=O)Nc3ccc4c(c3)OCCO4)c(-c3ccccc3)[nH]2)c1 as the compound, how does the Potency read?
Answer: Its Potency is inconclusive: 11.2 µM [inhibitor, partial curve, poor fit].

Question: How did the Potency turn out when CCOC(=O)C1=C(C)N=C2SCCC(=O)N2C1c1ccc(C(=O)OC)cc1 (stereo not drawn) was run?
Answer: Its Potency is “inactive”.

Question: With Cc1nnc(NC(=O)c2ccc3c(c2)OCO3)s1 as the compound, how does the Potency read?
Answer: The Potency was “inactive”.

Question: Which Potency does the source give for O=C(Nc1ccccc1)c1ccc(C(=O)Nc2ccccc2)nc1 here?
Answer: Its Potency is inconclusive: 79.4 µM [inhibitor, partial curve, poor fit].

Question: Which Potency does the source give for CCCN(CCC)c1nc(N)c(C#N)c(CC#N)c1C#N here?
Answer: Its Potency is inconclusive: 70.8 µM [inhibitor, partial curve, poor fit].

Question: For COc1cccc(CN2CC(C(=O)NCCOc3cccnc3)CCC2=O)c1 (stereo not drawn), which Potency is on record?
Answer: Its Potency is “inactive”.

Question: Which Potency does the source give for CN(C(=O)COC(=O)CSc1ccc(C(N)=O)cc1[N+](=O)[O-])C1CCCCC1 here?
Answer: The Potency was inconclusive: 56.2 µM [inhibitor, single point].

Question: With Cc1sc2ncn(CC(=O)Nc3ccc(C(C)C)cc3)c(=O)c2c1S(=O)(=O)N1CCN(c2ncccn2)CC1 as the compound, how does the Potency read?
Answer: The Potency was “inactive”.

Question: With CC(CCc1ccco1)NC(=O)Cn1nc(Cc2ccncc2)c2ccccc2c1=O (stereo not drawn) as the compound, how does the Potency read?
Answer: Its Potency is inconclusive: 79.4 µM [inhibitor, partial curve, poor fit].

Question: Cc1c(C(=O)N2CCN(c3ccccc3)CC2)oc2c(F)cccc12 was tested. Which Potency did it give?
Answer: Its Potency is “inactive”.

Question: How did the Potency turn out when CCN(CC)c1ccc(NC(=O)Nc2ccccc2)cc1 was run?
Answer: The Potency was active: 8.91 µM.

Question: How did the activity, negative = inhibition turn out when NCC1CCC(N)C(O[C@@H]2C(O)[C@H](O[C@H]3OC(CO)C(O)C(N)C3O)[C@@H](N)C[C@H]2N)O1 (stereo partly drawn) was run?
Answer: The activity, negative = inhibition was inactive: -3.04% [at 2.33 µM].

Question: Which Potency does the source give for O=C(COC(=O)/C=C/c1ccc(Br)o1)Nc1ccc2[nH]c(=O)[nH]c2c1 here?
Answer: The Potency was active: 35.5 µM.

Question: With CC(C)NC(=O)c1ccc(-n2c(=S)[nH]c3ccccc3c2=O)cc1 as the compound, how does the Potency read?
Answer: The Potency was inconclusive: 31.6 µM [inhibitor, full curve].

Question: For COC(=O)c1ccccc1S(=O)(=O)N(CCCN1CCOCC1)Cc1cccs1, which Potency is on record?
Answer: The Potency was active: 7.94 µM.

Question: CN(C)S(=O)(=O)c1cccc(NC(=O)CCc2nc3cc(S(=O)(=O)N4CCOCC4)ccc3n2C)c1 was tested. Which Potency did it give?
Answer: Its Potency is inconclusive: 100 µM [inhibitor, partial curve, poor fit].

Question: CCOc1cc(C2NC(=O)NC(O)(C(F)(F)F)C2C(=O)c2ccc(OC)cc2)ccc1O (stereo not drawn) was tested. Which Potency did it give?
Answer: The Potency was inconclusive: 89.1 µM [inhibitor, single point].

Question: For CCOC(=O)N=S(=O)(Oc1ccc([N+](=O)[O-])cc1)c1ccc(Cl)cc1 (stereo not drawn), which Potency is on record?
Answer: Its Potency is inconclusive: 39.8 µM [inhibitor, single point].

Question: For CC1=CN2CC(O)CN=C2C=C1 (stereo not drawn), which Potency is on record?
Answer: Its Potency is inconclusive: 89.1 µM [inhibitor, single point].

Question: With CCN(CC)c1ccc(/C=N/NC(=O)CNC(=O)C2COc3ccccc3O2)c(O)c1 (stereo not drawn) as the compound, how does the Potency read?
Answer: Its Potency is active: 17.8 µM.

Question: For O=C(NNC(=S)NC(=O)c1cccs1)c1cccnc1, which Potency is on record?
Answer: The Potency was active: 44.7 µM.

Question: How did the Potency turn out when CCOc1ccc(NS(=O)(=O)c2ccc(C(=O)N(C)C)s2)cc1 was run?
Answer: The Potency was “inactive”.

Question: For COc1cc([N+](=O)[O-])ccc1NC(=S)Nc1cccc(C(=O)O)c1, which Potency is on record?
Answer: The Potency was active: 10 µM.

Question: How did the Potency turn out when Cc1ccccc1C(=O)N1CC(=O)Nc2ccc(Cl)cc2C1c1ccccc1 (stereo not drawn) was run?
Answer: Its Potency is inconclusive: 31.6 µM [inhibitor, single point].

Question: For COc1ccc2ncc(S(=O)(=O)c3ccccc3)c(N3CCN(c4ccccc4)CC3)c2c1, which Potency is on record?
Answer: The Potency was inconclusive: 20 µM [inhibitor, single point].

Question: CCC(=O)NC(c1cc(Cl)c2cccnc2c1O)C(C)C (stereo not drawn) was tested. Which activity, negative = inhibition did it give?
Answer: Its activity, negative = inhibition is inactive: 9.93% [at 0.501 µM] and inactive: 26.1% [at 12.7 µM].

Question: CCOC(=O)N1CCN(C(=O)CSc2nc3c(cnn3-c3ccc(C)cc3)c(=O)[nH]2)CC1 was tested. Which Potency did it give?
Answer: Its Potency is inconclusive: 44.7 µM [inhibitor, partial curve].

Question: For CCn1c(=O)c(C(=O)CN2CCN(Cc3ccc4c(c3)OCO4)CC2)c(N)n(Cc2ccccc2)c1=O, which Potency is on record?
Answer: Its Potency is inconclusive: 20 µM [inhibitor, partial curve, poor fit].

Question: For CSc1nnc2c3ccccc3n(CCc3ccccc3)c2n1, which Potency is on record?
Answer: The Potency was inconclusive: 44.7 µM [inhibitor, partial curve, poor fit].

Question: O=C(c1cccs1)N1CCN(c2nnc(-c3ccccc3)c3ccccc23)CC1 was tested. Which Potency did it give?
Answer: Its Potency is “inactive”.

Question: How did the Potency turn out when O=S1(=O)CC/C(=N\Nc2ccccc2)c2ccsc21 was run?
Answer: Its Potency is inconclusive: 5.62 µM [inhibitor, partial curve, poor fit].

Question: Which Potency does the source give for Cc1ccc(CN2CCC(=O)N2)cc1 here?
Answer: Its Potency is inconclusive: 89.1 µM [inhibitor, single point].

Question: For O=C1C(=O)N(c2ccccc2)C(c2ccccc2[N+](=O)[O-])/C1=C(\O)c1ccccc1 (stereo not drawn), which Potency is on record?
Answer: The Potency was inconclusive: 56.2 µM [inhibitor, partial curve].

Question: CCCc1cc2c(OC(=O)CC)c(-c3ccc(C(=O)OCC)o3)c(=O)oc2cc1OC was tested. Which Potency did it give?
Answer: The Potency was “inactive”.

Question: For O=C(O)C(=O)/C(=C\c1ccsc1)c1ccc2ccccc2n1, which Potency is on record?
Answer: Its Potency is inconclusive: 79.4 µM [inhibitor, single point].

Question: For CN1CCN(c2ccc(Cl)cc2NC(=O)c2cccc(S(=O)(=O)N(C)C)c2)CC1, which Potency is on record?
Answer: The Potency was inconclusive: 1 µM [inhibitor, partial curve, poor fit].

Question: How did the Potency turn out when c1coc(Cn2c(SCc3nc4ccccc4[nH]3)nnc2-c2cnccn2)c1 was run?
Answer: Its Potency is active: 31.6 µM.

Question: For Cc1cc(C)c(OCCCNCc2ccccc2)c(Br)c1, which Potency is on record?
Answer: The Potency was active: 12.6 µM.

Question: How did the Potency turn out when CCN1CCN(C(=O)c2ccc(C(F)(F)F)cc2)CC1 was run?
Answer: The Potency was inconclusive: 56.2 µM [inhibitor, partial curve, poor fit].

Question: With Cc1nc2ccc(S(=O)(=O)CCC(=O)Nc3ccc(Cl)cc3)cc2s1 as the compound, how does the Potency read?
Answer: Its Potency is “inactive”.

Question: For COc1cc(OC)c(C2CC(=O)N3CN(c4ccccc4C)CSC3=C2C#N)cc1OC (stereo not drawn), which activity, negative = inhibition is on record?
Answer: The activity, negative = inhibition was inconclusive: -116% [inhibitor] [at 12.7 µM].

From PubChem BioAssay AID504332 (National Center for Advancing Translational Sciences (NCATS), 2011)
